On the data set, the source says:
Bu-2517 is isolated as a white amorphous solid in the above-described purification process. The antibiotic is soluble in water (solubility: >10%) at neutral and alkaline pH's. Its aqueous solution forms a precipitate in the pH range of 2.4-4.2. Bu-2517 is soluble in methanol, ethanol, aqueous dioxane, dimethylformamide and dimethylsulfoxide. […] The following Rf values were obtained with Bu-2517 in the silica gel (KIESELGEL 60F254, MERCK) thin layer chromatography (TLC) systems shown below: […]

Each structure is given as a SMILES string. *1 amine or outer side, *2 acyl side, *3 side chain or, on linkers, in order; H or OH if unused. Where a SMILES comes first, the peptide text is derived from it. Bridges are numbered along the chain shown (N, C = ends). [ ]: non-standard residue; d: D form. ξ: configuration not given here. X2 = CCCCCCCCCCCC(CC(=O)[*:1])O[*:2]; ξAsp(3ξ-OH) = NC(C(=O)O)C(O)C(=O)O; X1 = O=C(C1C(O)CCN1[*:1])[*:2]

The molecule `CCCCCCCCCCCC1CC(=O)N2CCCC2C(=O)NC(CO)C(=O)N2CCCC2C(=O)NC(CCCNC(=N)N)C(=O)NC(C(O)C(=O)O)C(=O)NC(CO)C(=O)N2CCC(O)C2C(=O)NC(C(O)C(=O)O)C(=O)O1` (stereo not shown) [Bu-2517] (PSPR[ξAsp(3ξ-OH)]S[X1][ξAsp(3ξ-OH)]; linker N-C via X2; configuration not given here) gave a solubility in water of over 10%.

These data come from US4409210A, “Antibiotic compound” (priority 1982, dated 1983).
